Source: the supplement of paper PMC4604168 (melanoma cell lines)
Some of the results follow. Repeats are few or missing, and single values can be far off.

tested on: SkMel5; assay: cell count relative to DMSO control; melanoma cells; higher = more viable cells; conditions: library dose: low library concentration; 72 h
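Also: cell number obtained by counting DAPI-stained nuclei in high-throughput microscope images with image analysis software, screen run in 1,536-well plates.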

SMILES	cell count [%]
Cn1c(Nc2ccc(C(F)(F)F)cc2)nc2cc(Oc3ccnc(-c4ncc(C(F)(F)F)[nH]4)c3)ccc21 + Cc1cc([N+](=O)[O-])ccc1NS(=O)(=O)c1cc(Cl)ccc1Cl [FH535] (first compound 0.08 µM, partner dose 1 µM)	72
COCC[n+]1c2c(n(Cc3cnccn3)c1C)C(=O)c1ccccc1C2=O + COc1ccc2c(c1)CCC1C2CCC2(C)C(NCCCCCCN3C(=O)C=CC3=O)CCC12 [U73122] (first compound 0.0004 µM, partner dose 0.4 µM)	87.4
Nc1cccc2c1CN(C1CCC(=O)NC1=O)C2=O (centres undefined) [lenalidomide] + CCCCCCCCCCCC1=C(O)C(=O)C=C(O)C1=O [Embelin] (first compound 1 µM, partner dose 1.2 µM)	108
O=C(CCCCCCC(=O)Nc1ccccc1)NO [vorinostat] + c1cc(-c2cnn3cc(-c4ccc(OCCN5CCCCC5)cc4)cnc23)ccn1 [Dorsomorphin] (first compound 0.08 µM, partner dose 0.4 µM)	81.3
